Values marked as one replicate rest on one cluster of the flow cell; about a third of the high ones do not repeat.

The record followed here is the supplement of paper PMC10126150.

The series concerns ATP. Nature of the series: switch fluorescence ratio, 500 uM ATP over buffer (Cy3 cluster intensity, sum of 5 cycles each) (fold (ratio)); higher = stronger signal-on switching upon ATP binding; sequences stand for … in TCGTCGGCAGCGTCAGATGTGTATAAGAGACAGTTTTTTTTTTTTTTTTTTTTTTTTT…TC. As to conditions: aptamer strand: ATP DNA aptamer (quencher-CACCTGGGGGAGTATTGCGGAGGAAGG + anchor), 100 nM annealed; ATP concentration: 500 uM; one replicate. In short, it runs like this: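 For every switch-domain sequence, the fluorescence ratio is the mean of per-cluster values, each being summed target-cycle Cy3 intensity over summed buffer-cycle Cy3 intensity. Clusters outside 100-1000 RFU were excluded. On a modified Illumina MiSeq flow-cell, the Cy3-labelled switching-strand clusters were annealed to 100 nM quencher-labelled ATP aptamer, imaged in selection buffer and then after 15 min with 500 uM ATP at 22 °C. Five such cycles were run, with NaOH stripping and re-annealing between them.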
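Also: ATP exposure 15 min at 22 °C before imaging.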

For the sequence GATTGAATTA, the switch fluorescence ratio was 0.973.
Then AGGACGCGCC, with 1.02.
With GACTTGACGG, the switch fluorescence ratio was found to be 1.02.
With AGAAAGATTA the figure was 1.01; with CTCTTACCCA, 1.06; with AGTTATCT, 0.991.
For the sequence TGGCTCGCGA, the switch fluorescence ratio worked out at 1.09.
As for TTCTTTGGCC, the switch fluorescence ratio was 0.975.
Then ATATGTGTCT, with 0.956; and TGATCCTCG, with 1; and GGCTTAGACT, with 1.01.
Take ATAGCAGATA: the switch fluorescence ratio was 1.04.
As to AACATCATTA, the switch fluorescence ratio was determined as 0.998.
Regarding TTCCGGGTCA, the switch fluorescence ratio was found to be 1.36.
With ACATTAAGTT the figure was 1.02.
Then CTCCGCCGTT, with 1.29; and CCGTAGGCAT, with 2.45; and AAGAAAATAG, with 2.11.
With TGCTGCGATC the figure was 1.64; with GACGTATTT, 1.06; with GCGTCATTTT, 0.968.
With GACAGATAAT, the switch fluorescence ratio is 0.956.
With AGTGTACTGA the figure was 1.02; with GAGTTCAGCA, 1.03; with AAGTGACGAA, 0.996.
Turning to CAGTTGTACG, the switch fluorescence ratio came to 0.976.
Then AAGCGGAGTA, with 0.954; and CATTGATTGT, with 0.976.
With CAATCGCTGA, the switch fluorescence ratio came to 1.04.
With TCTACCCATA the figure was 1.06; with AGAGTTCGGA, 0.99.
Turning to TATCTTAGGG, the switch fluorescence ratio is 1.02.
Consider GACATGGATG, for which the switch fluorescence ratio is 1.01.
Then GCTTTTATGG, with 1; and TGGTTCTTGG, with 0.974; and AGGTGAGAAC, with 1.02.
With TTGTCAGAGG the figure was 0.988; with GGCCAAACGG, 0.984.
With TTAGAATGC the figure was 0.966; with GACAATGGGG, 1.02.
On to GCAAGGGGG, for which the switch fluorescence ratio was determined as 1.04.
Regarding TCCTTGTCTG, the switch fluorescence ratio is 1.
TGGTCTGAG: the switch fluorescence ratio came out at 1.
Then CATCGGCATG, with 1.48; and CGGTGACTTT, with 0.976.
Consider CGTTCAAGCA, for which the switch fluorescence ratio was 1.05.
With AAAATATGA the figure was 0.96; with CAATCGTTGG, 0.987; with GAATTATCCT, 1.06.
Take CGTACCGAG: the switch fluorescence ratio is 1.01.
Then GTGTACTATC, with 1.
In the case of GGTCCATACT, the switch fluorescence ratio worked out at 1.
For the sequence TCAAGCACTC, the switch fluorescence ratio came out at 1.44.
With CGAGTACAGT the figure was 0.985.
With TTCTTCGGA, the switch fluorescence ratio was found to be 0.968.
Then GGACTC, with 1.06; and CTAAGCTAGT, with 1.22; and GCATGACGAT, with 1.04.
Then TTGTTCCTA, with 0.97; and AAACAACCCC, with 1.2; and CGATGGGTAG, with 0.954.
Then AGTGCCTTC, with 1.11; and GACAGTTAC, with 1.29.
For the sequence ATTCCCCTAC, the switch fluorescence ratio came to 1.15.
With TAGGACTCC, the switch fluorescence ratio amounted to 1.07.
With AGAGAAGCTT the figure was 0.94; with TTTAGTTCTA, 0.972.
With GCGGTTTGGG the figure was 0.954; with CGTCGAATCG, 0.976.
Consider CAGTTATAGT, for which the switch fluorescence ratio was 1.06.
Then TGCTCGTCAT, with 0.966; and ATTCGGTATT, with 0.967.
Then ATGTGCACAT, with 1.05; and GCCCGTTTAT, with 1.05.
Turning to TTCGAGCCCT, the switch fluorescence ratio was determined as 1.05.
With TTCGGGACC the figure was 1.02; with CGTGAAGAGG, 0.969.
Consider GGGGGCGCCT, for which the switch fluorescence ratio was determined as 0.99.
For the sequence AAGTGTTAAC, the switch fluorescence ratio came out at 1.02.
Then ATGATAGATC, with 0.968; and CAACTTCATG, with 0.982; and GCTTGTCGCC, with 0.957.
Turning to ATAGTTACCG, the switch fluorescence ratio came out at 1.09.
With ATTGGGGTAC the figure was 1.01; with GGGCGGATTG, 1.01; with TCTTTTTCGC, 0.98.
As to TCGTGGTGAA, the switch fluorescence ratio was determined as 0.974.
With CACCGAAGTT the figure was 1; with GACACTCTGC, 1.09; with TTTGGTGTCG, 1.03.
Then AGCTATCTGT, with 1.02; and AGTTTTAACT, with 0.958.
In the case of TTCTACATTC, the switch fluorescence ratio came out at 1.03.
Then CTCTATACTT, with 1.05.
Then ATAGAGGATG, with 1.
With ATTATTAGCC, the switch fluorescence ratio was 0.998.
With TCCCATTGGT, the switch fluorescence ratio came out at 0.987.
Turning to CTGGGACAA, the switch fluorescence ratio amounted to 0.985.
As for TACGAGTAGT, the switch fluorescence ratio was found to be 1.
With CCGTCTGGTT the figure was 1.12; with ATGAACGGA, 0.947; with TGACACTTAC, 1.45.
Then GAGATTACGC, with 1.02; and TCTGTCAAGT, with 0.967; and TGTGAGGAA, with 1.02.
With TATACGTGAG the figure was 1.
As for TAAGGGTCGG, the switch fluorescence ratio turned out to be 1.05.
With ATACCGTAT the figure was 1.06; with CATGGGTCTG, 0.99.
With GCTCAATCT the figure was 0.964; with CGTATACACT, 0.985; with GGTTCAGTCG, 1.03.
With GTGCATTTGC the figure was 0.975; with ATTAACTCTA, 1.02.
As to CATCGTGGAT, the switch fluorescence ratio stood at 1.03.
Then GAGCCATGGG, with 0.96.
With CTCCAAAGTT the figure was 1.12; with ACCTTTATAA, 1.05; with AAATATCTTT, 0.979.
With GATCCGCTGT the figure was 2.9; with CGGGCATCCG, 0.979.
